Reference: publication PMC4336329 (PLoS ONE, 2015)
Among all 310,000 compounds or so, about 14,000 (4.5%) showed an effect of 50% or more. The effect is printed as a negative number. The list shows a part of the results.

Biological target: human ether-à-go-go-related gene (hERG) potassium channel (human, UniProt Q12809)
Test: primary screen, population patch clamp on CHO cells stably expressing hERG
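Also: peak tail current of the secondary pulse compared with the same well before compound.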

human ether-à-go-go-related gene (hERG) potassium channel, sequence (Q12809 whole entry, looked up): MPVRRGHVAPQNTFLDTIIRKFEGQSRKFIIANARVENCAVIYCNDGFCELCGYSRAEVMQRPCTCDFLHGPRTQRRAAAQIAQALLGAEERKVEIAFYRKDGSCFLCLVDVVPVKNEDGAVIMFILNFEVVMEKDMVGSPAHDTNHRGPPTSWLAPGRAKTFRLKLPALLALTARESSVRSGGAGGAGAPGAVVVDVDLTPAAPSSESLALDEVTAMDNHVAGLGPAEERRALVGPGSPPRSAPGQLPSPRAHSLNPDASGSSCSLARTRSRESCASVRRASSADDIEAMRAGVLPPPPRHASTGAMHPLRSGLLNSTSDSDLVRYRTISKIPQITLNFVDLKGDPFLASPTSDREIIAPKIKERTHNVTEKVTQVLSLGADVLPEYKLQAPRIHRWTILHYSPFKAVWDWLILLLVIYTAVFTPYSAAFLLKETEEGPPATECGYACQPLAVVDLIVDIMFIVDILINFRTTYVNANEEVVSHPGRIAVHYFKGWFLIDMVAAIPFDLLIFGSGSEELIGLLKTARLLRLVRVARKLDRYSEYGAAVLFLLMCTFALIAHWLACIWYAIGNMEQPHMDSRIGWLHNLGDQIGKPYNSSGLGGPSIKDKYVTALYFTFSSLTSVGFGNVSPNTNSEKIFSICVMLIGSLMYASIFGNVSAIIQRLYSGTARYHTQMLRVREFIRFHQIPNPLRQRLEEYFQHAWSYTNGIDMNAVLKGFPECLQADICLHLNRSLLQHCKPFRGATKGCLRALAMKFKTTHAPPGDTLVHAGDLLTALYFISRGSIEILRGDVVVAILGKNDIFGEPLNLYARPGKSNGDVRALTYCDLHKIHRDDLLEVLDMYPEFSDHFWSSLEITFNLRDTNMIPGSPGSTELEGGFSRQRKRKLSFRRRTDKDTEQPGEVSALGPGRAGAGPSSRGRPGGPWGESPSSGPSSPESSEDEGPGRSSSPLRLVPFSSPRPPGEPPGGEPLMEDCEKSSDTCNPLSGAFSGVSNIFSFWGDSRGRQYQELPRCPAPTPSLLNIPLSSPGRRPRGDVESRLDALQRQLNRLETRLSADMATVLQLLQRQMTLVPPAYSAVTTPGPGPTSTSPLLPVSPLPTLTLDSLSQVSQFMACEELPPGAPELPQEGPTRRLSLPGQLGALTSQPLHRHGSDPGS

Structure (SMILES) | hERG current change (%, negative = inhibition) at 10uM [%]
Cc1ccc(NC(=O)C2CCCC2)c(Br)c1 | 23.3
N#Cc1c(-c2c(Cl)cccc2Cl)noc1/C=C/Nc1ccc(C(=O)O)cc1 | -27.1
Cc1noc(C)c1S(=O)(=O)Nc1ccc(C(=O)Nc2ccc(OC(F)(F)F)cc2)cc1 | 0.557
Clc1ccc(Cl)c(Oc2ccc(Oc3nc(Cl)ccc3Cl)cc2)n1 | 25.5
O=C(O)CCc1nc(-c2ccccc2)no1 | 20.9
CCCCCCC1CCC(C(=O)NC(CCSC)C(=O)NC(C(=O)OC)C(C)C)CC1 (centres unmarked) | 6.46
CCn1c(SC)nnc1-c1ccc(S(=O)(=O)N2CCCCC2)cc1 | -12.1
COc1ccc(Oc2coc3cc(OC(=O)N4CCOCC4)ccc3c2=O)cc1 | -25.3
CCc1ccc(NC(=O)N(Cc2cccnc2)Cc2ccco2)cc1 | -53.1
CCN1CCN(Cc2c(O)ccc3c2O/C(=C\C=C\c2ccccc2OC)C3=O)CC1 | -34.9
CCOc1ccc(CCNC(=O)COC(=O)COc2ccc(C(=O)CC)cc2)cc1OCC | 14.4
CC(/C=C/c1ccccc1)=N/NC(=O)c1cccc(Br)c1 | -10.1
COc1cc(C(=O)N[C@@H](C)C(=O)NCc2ccco2)cc(OC)c1OC | 21.6
Cc1ccc(OCC(=O)NC(C)c2ccccc2)c([N+](=O)[O-])n1 (centres unmarked) | -4.79
COCC(=O)N1CCC(Oc2ccc(C(=O)NCCCn3cccn3)cc2)CC1 | 11.9
COCCn1c(SCC(=O)Nc2ccc3[nH]c(=O)[nH]c3c2)nc2ccccc2c1=O | 2.22
C=C1C(C(=O)Nc2ccccc2)C1C(=O)Nc1ccccc1 (centres unmarked) | -27.3
CN(C)S(=O)(=O)c1cccc(NC(=O)COC(=O)CNC(=O)c2ccccc2F)c1 | -16.5
CC(Oc1cccc(Cl)c1)C(=O)Nc1ccc(S(=O)(=O)NC2=NCCCCC2)cc1 (centres unmarked) | -22.5
NC(=O)CCn1cnc2ccccc21 | 6.28
O=C(NCc1cccs1)C(Cc1ccccc1)n1cccc1 (centres unmarked) | -13.1
COc1ccccc1C(=O)NNC(=O)c1cccc([N+](=O)[O-])c1 | -13.3
CC(NC(=O)Cc1ccsc1)c1ccc(Cl)cc1Cl (centres unmarked) | 19.1

Structure (SMILES) | hERG current change (%, negative = inhibition) at 10uM [%]
CC(=O)C1=C(O)C(=O)N(CCCO)C1c1ccccc1 (centres unmarked) | 6.08
Cc1[nH]c(C)c2c(=O)n(-c3ccccc3)ncc12 | 10.2
Cc1ccc(NC(=S)NC(NC(=O)N(C)C)C(Cl)(Cl)Cl)cc1 (centres unmarked) | 7.17
COc1ccc(CN(C)C(=O)COC(=O)c2c(C)nn(-c3ccc(F)cc3)c2Cl)cc1 | -71.1
O=S(=O)(Nc1ccc(Cl)cn1)c1ccc2c(c1)OCCO2 | 2.39
COc1cccc(NC(=O)c2nnn(CCc3ccccc3)c2N)c1 | -10.7
COc1ccc(Nc2cc(C)nc3nc(C)nn23)cc1Cl | -55.5
O=C(COc1ccc([N+](=O)[O-])cc1)Nc1cccc(C(=O)Nc2ccccc2C(=O)O)c1 | 1.98
COc1ccccc1-c1noc(-c2ccccc2)n1 | 20.9
COc1ccc(CC(=O)Nc2nnc(SCC(=O)NCc3ccco3)s2)cc1OC | 3.21
FC(F)(F)c1nc(-c2ccccc2)ncc1-c1nnnn1-c1ccccc1 | 13.2
O=C(N/N=C/c1ccc([N+](=O)[O-])cc1)c1cc(-c2ccc3c(c2)OCO3)n[nH]1 | 6.47
COc1ccccc1OCCNC(=O)C1CC(=O)N(Cc2ccc(C)cc2)C1 (centres unmarked) | -3.37
CC(=O)N1CCSc2ccc(S(=O)(=O)NCCc3ccc(C)cc3)cc21 | -0.864
CN(C)c1nc(N(C)C)nc(N(C)C)n1 | 28
COC(=O)CC(N)c1ccc(Br)cc1.Cl (centres unmarked) | 17.2
CC1=NN(C(N)=S)C(=O)C1N=Nc1ccc(Cl)cc1Cl (centres unmarked) | 8.32
C=CCO/N=C(\C)c1c(O)c(C)c(-c2ccccc2)n(-c2ccccc2)c1=O | -4.99
O=C(Cc1ccccc1)Oc1ccc(N2C(=O)CCC2=O)cc1 | 6.02
Cc1cccc(N(C)C(=O)CCS(=O)(=O)c2cc3c(cc2Cl)NC(=O)CO3)c1 | -42.9
C[N+]1(CC(=O)OCCCc2ccccc2)CCOCC1.[I-] | 10.9
COC(=O)CSc1nnc(CSc2nc(C)cc(C)n2)o1 | 25
O=C(CCCSc1nc2ccccc2s1)NCc1ccco1 | -27.3

Structure (SMILES) | hERG current change (%, negative = inhibition) at 10uM [%]
COc1ccc(C(=O)Nc2nc3nccc(-c4ccccc4)n3n2)cc1 | -21.2
COc1ccc(OC)c(C2Nc3ccccc3NC3=C2C(=O)CC(C)(C)C3)c1 (centres unmarked) | 15.4
COc1ccc(C(=O)COC(=O)c2ccc(Cl)nc2)c(OC)c1 | -29.6
Fc1cc2nccnc2cc1N1CCSCC1 | 0.084
O=C1OCC(CO)(CO)N=C1NNc1ccccc1[N+](=O)[O-] | 10.4
Cc1ccc(OCCC(=O)NNC(=O)c2nn(C)c(=O)c3ccccc23)cc1 | -33.1
CCC(C)c1ccccc1N1CC(C(=O)NCCCn2nc(C)cc2C)CC1=O (centres unmarked) | 0.0933
COc1ccccc1NC(=S)N/N=C/c1ccc(O)cc1 | 5.84
CCCc1nnc(NC(=O)c2cccnc2)s1 | 9.3
CC(C)(C)S(=O)c1cccs1 (centres unmarked) | 14.7
c1cncc(N=c2scc(-c3cccc4ccccc34)n2CCCn2ccnc2)c1 | -56.5
CC(=O)Nc1cccc(NC(=O)Nc2ccc(C)c(Cl)c2)c1 | 47.8
Cc1ccc(C)c(NC(=S)N2CCC(N(C)CC3CCCO3)CC2)c1 (centres unmarked) | -8.91
COc1ccc(NC(=O)Nc2cccc(C(=O)N3CCOCC3)c2)cc1OC | 0.11
Cc1ccccc1C(=O)N1CCC(C(=O)Nc2nccs2)CC1 | 45.5
Fc1cccc(Cl)c1CSc1nnc(-c2ccncc2)o1 | -12.5
Oc1csc(Cc2nc(-c3ccc4ccccc4c3)cs2)n1 | 7.14
CC/C(=N\NC(=O)c1c(C)nc2ccccn12)c1ccccc1 | 23.1
CCCCc1nn2c(N)c(/C=C3\C=Nc4ccccc43)c(=O)nc2s1 | -5.84
O=C(Cc1ccc(-n2c(=S)[nH]c3ccccc3c2=O)cc1)N1CCC(N2CCCCC2)CC1 | -14
COc1ccc(CNC(=O)C(=O)NCC2CCCN2S(=O)(=O)c2cccs2)cc1 (centres unmarked) | -13.8
CN(C)S(=O)(=O)c1cccc(NC(=O)COC(=O)c2cccn2C)c1 | -3.94
O=C(COC(=O)Cc1ccccc1F)Nc1ccc(F)cc1F | -3.56

Structure (SMILES) | hERG current change (%, negative = inhibition) at 10uM [%]
CCC(C)Nc1nc(N)c([N+](=O)[O-])c(Nc2cc(OC)ccc2OC)n1 (centres unmarked) | 11.2
COc1ccccc1NC(=O)C(NC(=O)OC(C)(C)C)C(C)OCc1ccccc1 (centres unmarked) | 2.08
CCOc1ccc(C(c2c(NC(=O)c3ccccc3)sc(C)c2C)N2CCN(CCO)CC2)cc1 (centres unmarked) | -21.1
Cc1cc(C(F)(F)F)nc2c(Cl)c(C(C)(C)C)nn12 | 11.9
Cc1ccc2cc(COC(=O)c3ccncc3)c(=O)[nH]c2c1 | -7.04
O=C(O)c1nn(-c2ccccc2)c(-c2ccccc2)c1C(=O)c1ccccc1 | -14.3
CCOc1ccc2cc(C3CC(c4ccco4)=NN3S(C)(=O)=O)c(Cl)nc2c1 (centres unmarked) | -19.5
CC(=O)Nc1ccc(/C(C)=N/NC(=O)C2CC2c2ccccc2)cc1 (centres unmarked) | -8.88
Cc1cc(C)nc(NN2C(=O)/C(=C/c3ccc(O)cc3)SC2=S)n1 | -9.07
COc1ccc(NC(=O)c2cncc(Br)c2)c(S(=O)(=O)N2CCOCC2)c1 | -3.95
O=C(CCC1CCCN(C(=O)c2ccsc2)C1)N1CCN(c2ccccn2)CC1 (centres unmarked) | -12.9
CCOC(=O)c1c(C)n(S(=O)(=O)c2ccc(C)cc2)c2ccc(O)c(C(=O)O)c12 | -29.8
CC1CCN(S(=O)(=O)c2ccc(S(=O)(=O)NCC3COCCO3)cc2)CC1 (centres unmarked) | 7.47
COc1ccc(-c2cn[nH]c2N)cc1OC | 10.7
COc1ccc(CCNC(=O)CNC(=O)c2ccccc2Br)cc1OC | -5.29
CCOC(=O)/C(=C\c1cccc(O)c1)c1nc2sc(C)c(C)c2c(=O)[nH]1 | 12.3
Cc1ccc(Oc2nc3c(c(=O)n(Cc4ccccc4F)c(=O)n3C)n2C)cc1 | -16.5
COc1cccc(NC2=C(NCCO)C(=O)c3ccccc3C2=O)c1 | -8.76
Cc1c(Cl)cnc(NC(=O)COC(=O)c2cccc(S(=O)(=O)N3CCc4ccccc4C3)c2)c1Cl | 22.9
CCN1CCN(c2ccc(S(=O)(=O)N3CCOCC3)cc2NC(=O)/C=C/c2ccc(C)cc2)CC1 | -46
